According to PubChem BioAssay AID624296 (National Center for Advancing Translational Sciences (NCATS), 2012):
In all, about 350,000 compounds went through this assay and about 9,900 (2.8%) were called active. The inconclusive results got no clear call from the source; some entries with a clear call stand among them for comparison. Calls come from the whole dose curve; as a rule, active = well fitted activation curve with a large enough effect; inconclusive = small, poorly fitted or top-dose-only effect; inactive = no such curve, though single readings can be large or run the other way. Potencies of inconclusive entries are left out as doubtful fits.
Potency is the fitted concentration of half-maximal effect; tags give direction and shape of the fitted curve.

Experiment: A quantitative high throughput screen for small molecules that induce DNA re-replication in MCF 10a normal breast cells. For activity, positive = re-replication: % of control where 0% means no effect. Note: nearly all actives have a fitted effect of over 50% in size.
Settings: MCF 10A DNA re-replication, Hoechst nuclear intensity, 48 h; activity, positive = re-replication: at 46.1 µM (top of the series)
With `CCC(C)NC(=O)c1cnn2c(C)c3c(nc12)CCCC3` (stereo unspecified) the “activity, positive = re-replication” value was inactive: -9.19%. With `CNc1ccc(Br)cc(C(=O)/C=C/c2ccc(Cl)cc2Cl)c1=O` the Potency was active: 4.61 µM. With `CCCC(=O)Nc1ccc(-c2nc3cc(C)ccc3o2)cc1` the “activity, positive = re-replication” value was inactive: -1.26%. In the case of `Cc1ccc(C(=O)Nc2ccc(N3CCN(S(C)(=O)=O)CC3)cc2)cc1`, the “activity, positive = re-replication” value is reported as inactive: -1.86%. For `Cc1ccsc1/C=N/n1c(-c2ccco2)n[nH]c1=S`, the activity, positive = re-replication was inactive: -185% [at 0.0737 µM]. For `CCOC(=O)N/N=C/c1cn(Cc2ccccc2Cl)c2ccccc12`, the “activity, positive = re-replication” value was inactive: 3.11%. In the case of `COc1cc(-c2ccc(Nc3ccccc3C(=O)O)c(OC)c2)ccc1Nc1ccccc1C(=O)O`, the Potency is reported as inconclusive [activator, single point]. With `O=C(/C=C\c1ccccc1[N+](=O)[O-])Nc1ccccc1` the Potency was inconclusive [activator, partial curve, poor fit]. With `C/C(=N\Nc1nc2ccccc2nc1C)c1ccccc1O` the “activity, positive = re-replication” value was inactive: 12.3%. In the case of `O=C(c1ccc2nc(Cc3ccccc3F)oc2c1)N1CC[C@H](O)C1`, the Potency is reported as inconclusive [activator, single point]. For `COc1cc(C)c2c(c1C=O)Oc1c(c(C)c(O)c3c1C(O)OC3=O)OC2=O` (stereo unspecified), the Potency was inconclusive [activator, single point]. For `COc1ccc(C(=O)/C=C/c2ccc(OC)c(O)c2)c(F)c1`, the Potency was inconclusive [activator, single point]. With `COc1ccc(/C=N/Nc2nc3ccccc3[nH]2)c(OC)c1OC` the Potency was inconclusive [activator, single point]. For `Fc1ccc(C2CCNCC2COc2ccc3c(c2)OCO3)cc1` (stereo unspecified), the Potency was inconclusive [activator, single point]. With `CCOc1ccc(CN2CCN(Cc3c[nH]c4ccccc34)CC2)cc1` the Potency was inconclusive [activator, single point]. For `COc1cc2c(cc1NC(=O)C1CCCO1)oc1ccccc12` (stereo unspecified), the Potency was inconclusive [activator, single point]. For `CC(=O)n1cc(/C=N/NC(=O)c2ccccc2O)c2ccccc21`, the “activity, positive = re-replication” value was inactive: 0.154%. With `COc1ccc2c(c1)oc(=O)c1cc(OC)ccc12` the “activity, positive = re-replication” value was inactive: 1.28%. In the case of `COc1ccc(/C=C/c2nc(C)c(-c3ccccc3)c(=O)[nH]2)cc1OC`, the Potency is reported as inconclusive [activator, single point]. For `COC(=O)c1ccc(N(C(=O)CNC(=O)c2ccco2)C(C(=O)NC2CCCC2)c2ccco2)cc1` (stereo unspecified), the Potency was inconclusive [activator, partial curve, poor fit]. With `COc1ccc(C(=O)NC(=S)Nc2ccc3c4c(cccc24)CC3)cc1OC` the Potency was inconclusive [activator, partial curve, poor fit].
